# Measurements as given in PubChem BioAssay AID720542 (National Center for Advancing Translational Sciences (NCATS), 2013).
# Among all 360,000 compounds or so, about 740 (0.21%) were called active. The inconclusive results got no clear call from the source; some entries with a clear call stand among them for comparison. The call rests on the fitted dose curve; in most records, active means well fitted inhibition curve with a large enough effect; inconclusive means small, poorly fitted or top-dose-only effect; inactive means no such curve, though single readings can be large or run the other way. Potencies of inconclusive entries are left out as doubtful fits.
# System: Plasmodium falciparum AMA1 (3D7) - RON2 peptide interaction
# Assay: qHTS for Inhibitors of AMA1-RON; Towards Development of Antimalarial Drug Lead: Primary Screen; further: nearly all actives have a fitted effect of over 45% in size;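 on activity change, negative = inhibition: 0% = vehicle wells and -100% = peptide control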
# Conditions: AlphaScreen AMA1-biotinylated RON2 peptide binding; activity change, negative = inhibition: at 58.2 µM (top of the series) unless noted
# Method in brief: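 AMA1 (3D7) with his tag at 25 nM final met compounds first, then biotinylated RON2 peptide at 25 nM; detection used donor plus acceptor beads, 10 µg/mL apiece, read by AlphaScreen after 30 min at room temperature.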
# Potency means the concentration at half of the fitted maximal effect; tags describe the fitted curve by direction and shape.
Compound,"activity change, negative = inhibition",Potency
COc1ccc(CNc2ccc3cn[nH]c3c2)c(OC)c1OC,inactive: -2.57%,–
CCN(c1ccc(NS(=O)(=O)c2cc(Cl)ccc2Cl)cc1)C(C)C,–,"inconclusive [inhibitor, single point]"
CCOC(=O)C(Cc1ccccc1)C(=O)Nc1ccc(N(CC)CC)cc1 (stereo not drawn),–,"inconclusive [inhibitor, single point]"
S=C(NCc1ccc2c(c1)OCO2)NC1CCN(Cc2ccccc2)CC1,–,"inconclusive [inhibitor, partial curve]"
COc1cc(CNc2ccc(N3CCCC3)cc2)ccc1OCc1ccccc1,–,"inconclusive [inhibitor, partial curve]"
CN(C)c1cccc(C(=O)OCCCC(=O)c2ccc(F)cc2)c1,–,"inconclusive [inhibitor, partial curve, poor fit]"
CC(=O)c1ccc(C(=O)N2CCc3c([nH]c4ccccc34)C2c2ccccn2)s1 (stereo not drawn),–,"inconclusive [inhibitor, partial curve]"
COc1ccc(OCc2cc(=O)[nH]c3ccccc23)cc1,–,"inconclusive [inhibitor, partial curve]"
CCCn1c2ccccc2c2nnc(SCC(=O)Nc3ncccn3)nc21,inactive: -4.92%,–
O=S(=O)(Nc1ccncc1)c1ccc(Cl)cc1,–,"inconclusive [inhibitor, partial curve, poor fit]"
C=CC(=O)N1C/C(=C/c2ccc(Cl)cc2)C(=O)/C(=C\c2ccc(Cl)cc2)C1,–,"inconclusive [inhibitor, partial curve, poor fit]"
NC(=O)C1CC(=O)N(Cc2ccc3c(c2)OCO3)C(=Nc2ccccc2)S1 (stereo not drawn),inactive: -4.15%,–
NC1=NC[C@H](Cc2ccc(O)cc2)N1CCc1cc(C(F)(F)F)cc(C(F)(F)F)c1,inactive: -4.64%,–
COc1cc(CN2CCN(C(=O)CC(C)C)CC2)cc(OC)c1OC,–,"inconclusive [inhibitor, single point]"
Cc1ccccc1NS(=O)(=O)c1ccc(OCC(=O)NCc2cccnc2)cc1,inactive: 6.17%,–
CCc1ccc(CNCCc2c[nH]c3ccccc23)cc1,–,"inconclusive [inhibitor, partial curve]"
CCn1cc(C(=O)NCc2ccc3c(c2)OCO3)c(=O)c2cc(S(=O)(=O)N(C)C)ccc21,–,"inconclusive [inhibitor, single point]"
COc1ccc(OC)c(CN2CCN(C(=O)COc3cccc(C)c3)CC2)c1,–,"inconclusive [inhibitor, single point]"
Cc1cccc(Nc2ccc(S(=O)(=O)N3CCOCC3)cc2[N+](=O)[O-])c1,–,"inconclusive [inhibitor, single point]"
O=C(Cn1nc(-c2nn(CC(=O)c3ccccc3)c3[n+]2CCCCC3)[n+]2c1CCCCC2)c1ccccc1,inactive: -3.87%,–
Cc1nc(S/C(=C/c2ccc(-c3ccc(C(=O)O)cc3)o2)C(=O)O)n[nH]1,–,"inconclusive [inhibitor, full curve]"
COc1ccc2c(c1)CC1(CN2C)C(=O)NC(=O)N(c2ccc(C)cc2)C1=O (stereo not drawn),inactive: -2.56%,–

Compound,"activity change, negative = inhibition",Potency
CCN(CC)CCC(c1ccc(N(C)C)cc1)c1c(OC)cc(OC)c2ccc(=O)oc12 (stereo not drawn),–,"inconclusive [inhibitor, partial curve]"
COc1ccc(-n2nnnc2C(c2cc3ccccc3o2)N2CCN(C/C=C/c3ccccc3)CC2)cc1 (stereo not drawn),–,"inconclusive [inhibitor, partial curve]"
Nc1ccc2ccccc2c1N=Nc1ccccc1,–,active: 17.8 µM
O=c1c2c(-c3ccco3)csc2nc(SCc2cn3cccnc3n2)n1-c1ccccc1,–,active: 15.8 µM
COc1cc(OC)c(OC)cc1CN(C)C(c1ccccc1)c1nnnn1-c1ccccc1C (stereo not drawn),–,"inconclusive [inhibitor, single point]"
O=C1c2ccccc2NC(c2ccc3c(c2)OCCO3)N1c1ccc2c(c1)OCCO2 (stereo not drawn),inactive: -11.4%,–
Cc1cc(C)c(OCCN(C)Cc2ccccc2)c(Br)c1,–,"inconclusive [inhibitor, partial curve]"
Cc1ccc(-c2csc(Nc3ccccc3)[n+]2CCc2ccccc2)cc1,–,"inconclusive [inhibitor, partial curve]"
O=C(CSC1=NCCS1)N1CCc2ccccc21,–,"inconclusive [inhibitor, full curve, poor fit]"
COc1cccc(-c2nc(N3CCCCC3)c3ccccc3n2)c1O,–,"inconclusive [inhibitor, partial curve]"
S=C(NC1CCCCC1)N1CCOCCOCCN(C(=S)NC2CCCCC2)CCOCCOCC1,–,"inconclusive [inhibitor, partial curve]"
Clc1cccc(CSc2nccn2-c2ccccc2)c1,–,"inconclusive [inhibitor, single point]"
O=C(Nc1cccc(Oc2ccccc2)c1)C1Cc2c(-c3ccco3)ccnc2O1 (stereo not drawn),–,"inconclusive [inhibitor, partial curve]"
O=[N+]([O-])c1ccc(N2CCCCCC2)c2ncccc12,–,"inconclusive [inhibitor, partial curve]"
Cc1ccccc1-n1cnc2cc(NCc3cccs3)ccc21,–,"inconclusive [inhibitor, single point]"
CCOC(=O)CCCCC(=O)c1[nH]c(=O)[nH]c1CSCCO,–,active: 7.52 µM
COc1ccc(CCNCc2c(-c3ccccc3)n(C)c3ccccc23)cc1,–,"inconclusive [inhibitor, partial curve]"
Cc1cc(Nc2ccc(N3CCC(C)CC3)cc2)n2ncnc2n1,–,"inconclusive [inhibitor, single point]"
CCOC(=O)NC(O)C(=O)c1ccc(F)cc1 (stereo not drawn),inactive: -3.81%,–
Cc1nnc(C)c2c(C)n(Cc3ccc4c(c3)OCO4)c(C)c12,–,"inconclusive [inhibitor, single point]"
Cc1noc(C)c1S(=O)(=O)N(C)C[C@H]1OCc2cn(nn2)CCCC(=O)N([C@H](C)CO)C[C@@H]1C,inactive: -3.07%,–
